Results reported in PubChem BioAssay AID1347165 (National Center for Advancing Translational Sciences (NCATS), 2019).
The campaign covered roughly 220,000 compounds. About 5,700 (2.6%) were called active. The shares of active, inactive and inconclusive entries below differ from those in the screen. Calls come from the whole dose curve; as a rule, active = well fitted inhibition curve with a large enough effect; inconclusive = small, poorly fitted or top-dose-only effect; inactive = no such curve, though single readings can be large or run the other way. Potencies of inconclusive entries are doubtful fits and often do not repeat.

target: Lysine-specific demethylase 5B (Homo sapiens) (UniProt Q9UGL1); assay: Primary screen for KDM5B Histone Demethylases FDH-coupled qHTS; conditions: FDH-coupled NADH fluorescence (FDH is formaldehyde dehydrogenase); activity change, negative = inhibition: at 57.7 µM (top of the series) unless noted; note: nearly all actives have a fitted effect of over 70% in size; for activity change, negative = inhibition: 0% is about no effect
How it was run: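 Compound dilutions met 200 nM (final) KDM5BΔAP for 10 min at room temperature before substrate addition. The substrate mix held 12.5 µM H3K4me3 with cofactors 25 µM α-ketoglutarate and 50 µM Fe²⁺. NADH signal gain over 30 min defined activity.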
Potency is the fitted concentration of half-maximal effect; tags give direction and shape of the fitted curve.

Sequence of UniProt Q9UGL1 (Q9UGL1 whole entry, looked up): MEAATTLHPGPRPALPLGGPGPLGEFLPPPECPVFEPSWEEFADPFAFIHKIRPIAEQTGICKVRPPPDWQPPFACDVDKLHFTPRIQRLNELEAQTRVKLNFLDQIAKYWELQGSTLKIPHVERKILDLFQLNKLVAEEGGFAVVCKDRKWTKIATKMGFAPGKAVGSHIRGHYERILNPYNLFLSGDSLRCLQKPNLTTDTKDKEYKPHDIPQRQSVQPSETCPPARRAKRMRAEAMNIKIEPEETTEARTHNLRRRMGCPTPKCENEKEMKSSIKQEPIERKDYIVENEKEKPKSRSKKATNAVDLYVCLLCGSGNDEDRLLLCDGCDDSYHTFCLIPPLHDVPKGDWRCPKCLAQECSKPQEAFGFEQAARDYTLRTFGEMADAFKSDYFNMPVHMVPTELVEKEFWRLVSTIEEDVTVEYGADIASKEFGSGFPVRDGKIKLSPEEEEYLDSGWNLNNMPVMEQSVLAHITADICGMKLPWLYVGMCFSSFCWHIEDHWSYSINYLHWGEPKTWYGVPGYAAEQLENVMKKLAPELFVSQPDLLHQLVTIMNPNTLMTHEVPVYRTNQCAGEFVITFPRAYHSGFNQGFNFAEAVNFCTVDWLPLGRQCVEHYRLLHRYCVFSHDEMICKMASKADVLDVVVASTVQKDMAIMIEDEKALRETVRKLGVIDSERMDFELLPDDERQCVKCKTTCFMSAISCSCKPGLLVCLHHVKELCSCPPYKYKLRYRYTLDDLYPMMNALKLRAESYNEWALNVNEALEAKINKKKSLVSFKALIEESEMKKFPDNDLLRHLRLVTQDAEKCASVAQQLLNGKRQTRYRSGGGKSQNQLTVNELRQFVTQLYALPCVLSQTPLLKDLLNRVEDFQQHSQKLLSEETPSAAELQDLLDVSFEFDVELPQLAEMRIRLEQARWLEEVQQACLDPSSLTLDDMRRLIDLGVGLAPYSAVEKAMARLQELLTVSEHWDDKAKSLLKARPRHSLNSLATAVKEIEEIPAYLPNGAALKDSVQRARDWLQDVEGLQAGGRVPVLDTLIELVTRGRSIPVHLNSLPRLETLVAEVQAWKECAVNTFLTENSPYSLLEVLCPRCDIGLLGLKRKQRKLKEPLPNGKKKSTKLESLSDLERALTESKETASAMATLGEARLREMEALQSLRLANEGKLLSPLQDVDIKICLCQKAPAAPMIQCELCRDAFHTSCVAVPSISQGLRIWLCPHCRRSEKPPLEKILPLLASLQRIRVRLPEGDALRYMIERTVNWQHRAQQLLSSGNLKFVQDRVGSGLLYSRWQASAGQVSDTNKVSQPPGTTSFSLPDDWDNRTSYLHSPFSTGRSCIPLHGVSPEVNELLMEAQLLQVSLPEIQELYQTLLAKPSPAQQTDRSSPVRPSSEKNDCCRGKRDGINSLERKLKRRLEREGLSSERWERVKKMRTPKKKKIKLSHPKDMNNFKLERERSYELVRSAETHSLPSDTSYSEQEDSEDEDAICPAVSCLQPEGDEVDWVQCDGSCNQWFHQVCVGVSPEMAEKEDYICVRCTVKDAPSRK

Row | SMILES | activity change, negative = inhibition | Potency
1 | O=C(Cc1csc(-c2ccccc2)n1)Nc1ccnn1Cc1cccc(Cl)c1 | inactive: -10.9% | –
2 | Cc1noc(-c2cccn3c(CNC(=O)c4ccco4)nnc23)n1 | – | active: 28.2 µM
3 | COC(=O)[C@@H]1Cc2c([nH]c3ccccc23)[C@H]2C[C@H](NCc3cccs3)C[C@@H](c3ccc(F)cc3)N21 | – | inconclusive: 17.8 µM [inhibitor, single point]
4 | CCOc1ccc(CN2CCNC(=O)C2CC(=O)NCCN2CCOC2=O)cc1 (stereo not given) | – | inconclusive: 31.6 µM [inhibitor, single point]
5 | CCOC(=O)c1[nH]c2cc(OC)c(OC)cc2c1NC(=O)CCN1CCC(C(N)=O)CC1 | – | inconclusive: 28.2 µM [inhibitor, partial curve, poor fit]
6 | COc1cccc2sc(N3CCN(C(=O)CCS(=O)(=O)c4ccc(F)cc4)CC3)nc12 | – | inconclusive: 17.8 µM [inhibitor, partial curve, poor fit]
7 | C[C@H](C(=O)NCCN1CCOCC1)C1CC[C@@]2(C)Cc3sc(-c4ccccc4)nc3[C@@H](C)[C@@H]2[C@H]1O (stereo not given in full) | – | active: 25.1 µM
8 | Cc1cccc(C)c1NC(=O)/C(C#N)=C\c1ccc(OC(F)F)cc1 | – | inconclusive: 20 µM [inhibitor, single point]
9 | CC1CCN(C(=O)C[C@@H]2c3nc(NC(=O)c4ccc(F)cc4)sc3C[C@@H]3[C@](C)(CO)[C@H](O)CC[C@]32C)CC1 | – | inconclusive: 25.1 µM [inhibitor, single point]
10 | COC(=O)[C@@H]1Cc2c([nH]c3ccccc23)[C@H]2C[C@@H](NCCO)C[C@@H](c3cccc(OC)c3)N21 | – | inconclusive: 3.16 µM [inhibitor, partial curve, poor fit]
11 | CCCC(=O)N1CCCC(c2noc(COc3ccccc3)n2)C1 (stereo not given) | inactive: -12.5% | –
12 | COC(=O)c1[nH]c2ccc(F)cc2c1NC(=O)CCN1CCCC(C)(C)C1 | – | inconclusive: 31.6 µM [inhibitor, partial curve, poor fit]
13 | Cn1c(=O)[nH]c2c(nc(-c3ccccc3)n2CCc2ccccc2)c1=O | – | inconclusive: 15.8 µM [inhibitor, partial curve, poor fit]
14 | Cc1nc(-c2ccc(F)cc2)sc1C(=O)NC1C=CS(=O)(=O)C1 (stereo not given) | inactive: -32% | –
15 | Cc1ccc(O)c(NC(=O)CCS(=O)(=O)c2nc(-c3ccc4c(c3)OCO4)cc(C(F)(F)F)n2)c1 | – | inconclusive: 25.1 µM [inhibitor, partial curve, poor fit]
16 | Cc1nc2c(c(NCCc3cnn(-c4ccccc4)c3)n1)CCNCC2 | inactive: 3.19% | –
17 | CCOC(=O)COc1ccc2c(CC)cc(=O)oc2c1C | – | inconclusive: 22.4 µM [inhibitor, partial curve, poor fit]
18 | COc1cc2ncnc(NCc3ccc(F)cc3)c2cc1OC | – | inconclusive: 3.16 µM [inhibitor, full curve, poor fit]
19 | COc1cccc(/C=C(/C#N)C(=O)c2c(Cl)cccc2Cl)c1OC | – | inconclusive: 10 µM [inhibitor, partial curve, poor fit]
20 | CC(C)c1noc(-c2cccn3c(CNC(=O)Cc4ccccc4Cl)nnc23)n1 | – | active: 25.1 µM
21 | CCCC(=O)Nc1cccc(-c2cc3cc(F)ccc3[nH]2)c1 | – | inconclusive: 25.1 µM [inhibitor, partial curve, poor fit]
22 | CCCOc1ccc(-c2cc(C(=O)O)c3cc(C)ccc3n2)cc1 | – | inconclusive: 1.78 µM [inhibitor, full curve, poor fit]

Row | SMILES | activity change, negative = inhibition | Potency
23 | O=C1NCCCCCCN(C(=O)c2ccco2)[C@H]2CCC[C@@H]12 | inactive: -3.48% | –
24 | COc1cc2c(=O)n(CCC(=O)NCC3CCCO3)c(=O)n(CC(=O)Nc3ccc(F)cc3)c2cc1OC (stereo not given) | – | inconclusive: 25.1 µM [inhibitor, partial curve, poor fit]
25 | COc1ccccc1/C=C/C(=O)OCC(=O)Nc1c(C)nn(-c2ccccc2)c1C | – | inconclusive: 31.6 µM [inhibitor, partial curve, poor fit]
26 | CCOc1ccccc1N1CCN(C(=O)c2ccc3c(c2)N(C)C2CCCCN2C3=O)CC1 (stereo not given) | – | inconclusive: 22.4 µM [inhibitor, partial curve, poor fit]
27 | OCc1ccc(CN2Cc3[nH]cnc3C[C@H]2c2nc(-c3ccc4ccccc4c3)no2)o1 | – | inconclusive: 25.1 µM [inhibitor, partial curve]
28 | O=C(C1CCCCCC1)N1CCC(n2cc(C3CCCCC3)nn2)CC1 | inactive: -7.21% | –
29 | O=C(c1nccc2ccccc12)N1CCc2c(nc(-c3ccc(F)cc3)[nH]c2=O)C1 | – | inconclusive: 14.1 µM [inhibitor, partial curve]
30 | COc1ccccc1NC(=O)c1cc2cc(C)ccc2n1C | inactive: 6.88% | –
31 | Cc1ccc2c(c1)c1c(c(=O)n(-c3ccccc3C)c(=O)n1CC(=O)NCC1CCCO1)n2C (stereo not given) | – | inconclusive: 5.62 µM [inhibitor, full curve, poor fit]
32 | CCOc1ccccc1NC(=O)Cn1c(N(C)Cc2ccccc2)nc(C)cc1=O | – | inconclusive: 31.6 µM [inhibitor, single point]
33 | CC1(CNCc2ccccc2)COc2ccc(C(=O)Nc3cccc(Cl)c3)cc2N1 (stereo not given) | – | inconclusive: 39.8 µM [inhibitor, partial curve, poor fit]
34 | Cc1cn2nc(C(=O)N3CCCCC3)cc2c(N(C)Cc2ccccc2)n1 | – | active: 31.6 µM
35 | Cc1cccc(C)c1OCC(=O)Nc1ccc2oc(C(F)(F)F)nc2c1 | inactive: 2.62% | –
36 | CC1(C)O[C@H]2[C@@H](O1)[C@@H](C(=O)Oc1ccc3ccccc3c1)O[C@@H]1OC(C)(C)O[C@@H]12 | inactive: -10.5% | –
37 | CCOC(=O)c1cc2c(=O)n3ccccc3nc2n(C)c1=NC(=O)c1cc2ccccc2o1 | – | inconclusive: 28.2 µM [inhibitor, partial curve, poor fit]
38 | COc1ccc(CNC(=O)CC2CCN(C(=O)c3cn(-c4ccccc4)nc3C)CC2)cc1 | inactive: 1.47% | –
39 | COC[C@@H]1CN(c2ncccn2)C[C@H]1C(=O)O | – | active: 15.8 µM
40 | CCOc1cc(CN2CCCCCC2c2ccc(Cl)cc2)ccc1OCC(N)=O (stereo not given) | inactive: -13.4% | –
41 | CSc1ccc(CCNC(=O)c2cc3c(-c4ccccc4F)nn(C)c3s2)cc1 | – | inconclusive: 35.5 µM [inhibitor, partial curve, poor fit]
42 | FC(F)(F)c1cnc(N2CCSCC2)c(Cl)c1 | inactive: 14.7% | –
43 | CCc1nc(SCc2coc(-c3cccc(F)c3)n2)n[nH]1 | inactive: 16.8% | –
44 | O=C(NC1CCCCC1)c1ccc2c(Cl)c3c(nc2c1)CCCC3 | inactive: -5.2% | –

Row | SMILES | activity change, negative = inhibition | Potency
45 | Nc1nc(CN2CCC(O)CC2)nc2ccccc12 | inactive: -14.8% | –
46 | COc1ccc(-c2c(C)c3ccc(OC(C)=O)c(C)c3oc2=O)cc1 | – | inconclusive: 15.8 µM [inhibitor, single point]
47 | CC(C)(Oc1nn(Cc2cccc(Cl)c2)c2ccccc12)C(=O)NCc1ccncc1 | – | inconclusive: 56.2 µM [inhibitor, single point]
48 | Cc1cc(C)cc(Nc2cc(C(=O)NCc3ccccc3)c3ccccc3n2)c1 | – | inconclusive: 31.6 µM [inhibitor, partial curve, poor fit]
49 | CCC(=O)N1N=C(c2c(-c3ccccc3)c3cc(Cl)ccc3n(C)c2=O)CC1c1cccs1 (stereo not given) | – | inconclusive: 35.5 µM [inhibitor, single point]
50 | Nc1ncc(-c2ccc(-c3cc(NC4CCCC4)nc4[nH]ccc34)cc2)[nH]1 | – | inconclusive: 25.1 µM [inhibitor, partial curve, poor fit]
51 | COc1ccc(-c2ccc(=O)n(CC(=O)NCCc3ccccc3)n2)cc1 | – | inconclusive: 25.1 µM [inhibitor, partial curve, poor fit]
52 | CN(C)c1ccc(C=Nc2ccc(O)cc2)cc1 | – | inconclusive: 6.31 µM [inhibitor, full curve, poor fit]
53 | CN(C)c1ccc(CN2CCNc3cc(Nc4cccnc4)ncc3C2)cc1 | inactive: -17.7% [at 86.2 µM] | –
54 | c1cc(-c2cc3c(ccn3Cc3ccncc3)c(N3CCOCC3)n2)cc(N2CCOCC2)c1 | – | active: 20 µM
55 | CC(=O)c1c(C)oc2ccc(N(C(=O)c3ccncc3)S(=O)(=O)c3ccc(C)cc3C)cc12 | – | inconclusive: 15.8 µM [inhibitor, partial curve, poor fit]
56 | CN1CC(=O)N(C2CCCNCC2)Cc2c1ncnc2N1CCCC(F)C1 (stereo not given) | – | inconclusive: 56.2 µM [inhibitor, partial curve]
57 | Cc1ccc2cccc(SCc3ccc(F)cc3)c2n1 | – | inconclusive: 31.6 µM [inhibitor, partial curve, poor fit]
58 | O=C(NCCc1csc(-c2cccnc2)n1)C1CC2(CCNCC2)CN1 (stereo not given) | – | inconclusive: 25.1 µM [inhibitor, partial curve, poor fit]
59 | CCOc1ccc(NC(=O)Cn2ccn3nc(-c4ccccc4)c(CO)c3c2=O)cc1 | inactive: -6.17% | –
60 | CC(=O)Oc1ccc2ccc3ccc(OC(C)=O)c4ccc1c2c34 | – | inconclusive: 22.4 µM [inhibitor, partial curve, poor fit]
61 | Cc1cnn(CCC(=O)N2C[C@@H](CO)[C@H](c3ccncc3)C2)c1 | inactive: 28.4% | –
62 | COc1ccc(-c2ccc3c(n2)CN(C)C(=O)CO3)cc1 | – | active: 35.5 µM
63 | C=CCN1C(=O)/C(=c2\sc3nc(=O)c(Cc4ccc(OC)c(OC)c4)nn3c2=O)c2ccccc21 | – | inconclusive: 39.8 µM [inhibitor, single point]
64 | Cc1ccccc1-c1nc2cnccn2c1NCCC(=O)N1CCC(C)CC1 | – | active: 28.2 µM
65 | O=C(Nc1ccc2oc(-c3cccc(Cl)c3Cl)nc2c1)c1cccc(Br)c1 | – | inconclusive: 4.47 µM [inhibitor, partial curve, poor fit]
